From article PMC12136788
The other results are listed elsewhere or left out.

T1: UNK ZnF1-3 (human, UniProt Q9C0B0 31-174)
T1 sequence: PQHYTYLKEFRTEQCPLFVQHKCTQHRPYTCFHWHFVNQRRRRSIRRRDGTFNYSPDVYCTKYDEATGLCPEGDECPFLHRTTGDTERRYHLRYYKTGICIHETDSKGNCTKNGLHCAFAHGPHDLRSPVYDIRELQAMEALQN

B1: chr2:69032557:69032558:-_ENSMUSG00000005233_ENSMUST00000005365|mus_hu|motif|central (ssRNA)
RNA: GGGAGUUCUACAGUCCGACGAUCAUUGGCAAGAAAAGCUGAAAAAUUGUUGGUCUUCCUUACAUUCUCUUGAAAUUCUGCGGGGCCCUCAAGAUGAGGGGCACUAUCUGACACUUCAUAGUCCCUUGCUUCAUUGAGAUGUAACAACAGAGGAUUGAGCAUCA
B2: chr16:20684184:20684185:+_ENSMUSG00000045983_ENSMUST00000044783|mus_hu|FALSE|FALSE (ssRNA)
RNA: GGGAGUUCUACAGUCCGACGAUCUGGAGGACCGCCCCGACGCUUGUCACUGCCCUUGGCCAUGAGCUGCUGCACUUUGAUGUGCUCUCGAUGUUCUUCCAUCUCAGCCUCCUUAUGGAUCUGGUCAAUGGUCUUGGGACCCUGCAACAGAGGAUUGAGCAUCA
B3: chr6:133136146:133136147:+_ENSG00000112306_ENST00000230050|hu_hu|FALSE|FALSE (ssRNA)
RNA: GGGAGUUCUACAGUCCGACGAUCACAAAGAUGGGCUUGGCGCUUGUCUAAGGCUUUGGCAGCUUCGCGAAUUCCACGUGCUAGGCCAUCGUGGAUGAGGGCAGUCUUCAGAACCUCUUGUAAAGCAGUAUUAACGUCCAUUACCAACAGAGGAUUGAGCAUCA
B4: chr7:54825262:54825263:-_ENSG00000132432_ENST00000352861|hu_hu|hu_hu_hu_mus_False|18_108 (ssRNA)
RNA: GGGAGUUCUACAGUCCGACGAUCCUGACUUGGCUCAUCCACAAACUGCAUUACCUGAUCCAUGUUUGUUGGAUGGCGGAUUGAGAGCGUAGAGACACGUAGCUCAGGAGAGAACCGGAUGGAGGCCAACCGGAAGCUGGCAACCAACAGAGGAUUGAGCAUCA
B5: chrX:77160730:77160731:+_ENSG00000131174_ENST00000481445|hu_mus|motif|central (ssRNA)
RNA: GGGAGUUCUACAGUCCGACGAUCCUACUGAUCUCUCCAUUCCUUUGGGGUGACUCUGCCAACAGGGGACAUGUUCCAUUCGGUUCCAAUUUGUGUGGCUGUAUAUGUCCAUGUAGAAACACAGAAGAUGGCUCCACCUGCUAACAACAGAGGAUUGAGCAUCA
B6: chr9:71842732:71842733:+_ENSG00000119139_ENST00000377245|hu_hu|motif|central (ssRNA)
RNA: GGGAGUUCUACAGUCCGACGAUCAUCAUAAUCAGAAUACUGAUGACGUCUCUCCUCUGGAGAAAAUGAUCGGUUUGACUCGGUUUCUGAAAUAUCUUCUAUUUCUGAGUCACUGUCAUUUAAUGACGGGAUGUUGAUGAGGGUCAACAGAGGAUUGAGCAUCA
B7: chr1:130485734:130485735:-_ENSMUSG00000045382_ENSMUST00000052172|mus_mus|mus_mus_mus_hu_False|78_78 (ssRNA)
RNA: GGGAGUUCUACAGUCCGACGAUCGAUGAAGGAGUCGAUGCUGAUCCCAAUGUAGUAUGGCAGCCAGCAGGCGAAGAAAGCCAGGAUGAGGAUGACUGUGGUCUUGAGGGCCUUGCGCUUCUGGUGGCCCUUGGAGUGUGACAGCAACAGAGGAUUGAGCAUCA
B8: chr14:78183846:78183847:+_ENSG00000119705_ENST00000557342|hu_hu|hu_hu_hu_mus_False|18_88 (ssRNA)
RNA: GGGAGUUCUACAGUCCGACGAUCUCUCAGAAAUCUUUCUUCAUCAGCAUCAUCAGAUCCGUGCAAAGCCUUUGCUCUUUGAGCUUGAACGUGGAUCUAUGGGAGGGAAAGCACUGUAUUUUCCUGUAAUUUUUUUUUUAAAGACAACAGAGGAUUGAGCAUCA
B9: chr7:135834168:135834169:+_ENSMUSG00000042105_ENSMUST00000151237|mus_hu|FALSE|FALSE (ssRNA)
RNA: GGGAGUUCUACAGUCCGACGAUCUUCAUCAUCAUAAUAGGCCACGUAGUAGGCAGAGUUAGAAAGCAGUAACAGCACAUCCACGUCUCUGUGAGUAGCAUCAAUGAGGGUGCACUCUGAAAAUUGUUGCUUGAGCCAAGCCAUCAACAGAGGAUUGAGCAUCA
B10: chr2:179515052:179515053:+_ENSMUSG00000000305_ENSMUST00000000314|mus_mus|motif|central (ssRNA)
RNA: GGGAGUUCUACAGUCCGACGAUCGCGUUCCCGCGCAGUGACGGUAAAGGCCACCUGCUCUGAGGGGAUCUUCAACUCCCGGGUGGCGAAGACUGUCCCAUCCGCCCCGACUUUGAAGUCCAAGCUGUUGGUCUCAUACUGCAUCAACAGAGGAUUGAGCAUCA
B11: 169336970_169337090_175_5pUTR_ENSG00000143156_ENST00000367811|human|control|control (ssRNA)
RNA: GGGAGUUCUACAGUCCGACGAUCAAAAUAGGUAUCGUUGAGACAGGAAGACACCACCACCACCACCAUCAUACGGUUACUCAGGCAACAAAGCCCCGCCCACUGUCGCACGAGGCGUGGGACGCCACCGCCCCACCUCUUCGUCAACAGAGGAUUGAGCAUCA
B12: chr1:231488893:231488894:+_ENSG00000010072_ENST00000295050|hu_mus|FALSE|FALSE (ssRNA)
RNA: GGGAGUUCUACAGUCCGACGAUCGACCAGCCGCCGUUGACUGCUCAAGCUCUGAGGAGCGCUGGCGGCUGUGGGCUGUGAGCUACUCCGAAGGUCACCACCACUUUGUGUUUGUUCCUUGAUAGUAUCCAAAGCAGUCCUGUCCAACAGAGGAUUGAGCAUCA
B13: chrX:101971874:101971875:+_ENSG00000158301_ENST00000332262|hu_hu|FALSE|FALSE (ssRNA)
RNA: GGGAGUUCUACAGUCCGACGAUCCAUAGUGAGGUGUCUAAGCAUCCUUAUUCCAGUCAGCUGCUCAAGGGAAUCCACACUAUGUGCAAGGGUUUCCUCACACACUUGACAUAUGAAUGUCUCAAUCAUGUUUAGAUUUGGAUACAACAGAGGAUUGAGCAUCA
B14: 148340382_148341706_542_3pUTR_ENSMUSG00000028975_ENSMUST00000103217|mouse|control|control (ssRNA)
RNA: GGGAGUUCUACAGUCCGACGAUCCUCAGUAGCUCUUGGACAGAGGCCAGUGUUGUCUGCACCUGAGUCACUGUCUGGGCCACGGUGCCACUCAGUUCCGAGAGACUCGCUGCCAUCCUCUCCAGCUGCUUUCUGUCCUCUCGGCAACAGAGGAUUGAGCAUCA
B15: 234357861_234357981_1799_3pUTR_ENSG00000077044_ENST00000264057|human|control|control (ssRNA)
RNA: GGGAGUUCUACAGUCCGACGAUCAGGCUGUUGGCUCUCAGCAUGAGCUGUUCUCGAGGCCGGAAUAUCUGCGGCCGGGCCGGGCAAGCUGAUGCCACCAAGCGGUCUCCGGUGGAACCGCAGAUGCUGCCCGACCCAUCUCCACAACAGAGGAUUGAGCAUCA
B16: 122260803_122260923_138_5pUTR_ENSMUSG00000032540_ENSMUST00000156520|mouse|control|control (ssRNA)
RNA: GGGAGUUCUACAGUCCGACGAUCCCGCCGCCAUCGCUUUCAUCACCGCCGCCGCGCAAGCGCAGGGACACACCUCGAAGCCGGCUGACAGGCCGACUGGGCGGCCCCGGGCCGCGGCCGCCCUUAAGACCGCACCGCCCGCGCCAACAGAGGAUUGAGCAUCA
B17: chr1:163112212:163112213:-_ENSG00000143248_ENST00000313961|hu_hu|hu_hu_hu_mus_False|68_68 (ssRNA)
RNA: GGGAGUUCUACAGUCCGACGAUCUUUUAUUAUCAGUAAGAGUGAGUUACAUACUAGGCAAAGUAUUGAAUACAAAAAUCAGGAAACAAACACUAUUGGUCCAGAAUUUAAAACUUUAUGAGCGAAGUGCUGGCACAGGACUUACAACAGAGGAUUGAGCAUCA
B18: chr19:40030274:40030275:-_ENSG00000176396_ENST00000390658|hu_hu|motif|central (ssRNA)
RNA: GGGAGUUCUACAGUCCGACGAUCCGGGUAAUUUUCCAGAUAGUGGCGGAGAAACUGCUGGUAAUUGAUGCCUAAAACGCGGAGUGGGUGGCGGAGACGGAGAUAGGGCAACGCAGCCAGGCCUCCGUUCCCGUGUCUGGACCUCAACAGAGGAUUGAGCAUCA
B19: chr16:32092491:32092492:-_ENSMUSG00000023791_ENSMUST00000096109|mus_mus|FALSE|FALSE (ssRNA)
RNA: GGGAGUUCUACAGUCCGACGAUCUAAGUUCCUUUCUCGUAGUGAAGCCAACUCAUAGGGAUCCACAAAGAGUCCUGGUGGAAUGUAAUGCUUAAUUAGGAGCCGGCAGGUCUGUAGGUCCUCAAUGCUCUCUCCAAAUUUCACCAACAGAGGAUUGAGCAUCA
B20: 7962896_7963016_1207_3pUTR_ENSG00000125827_ENST00000246024|human|control|control (ssRNA)
RNA: GGGAGUUCUACAGUCCGACGAUCUCUACAGUCCCUUGUCAGCAUGCUGACUUUUACGCUGCCUCAAGGAGUCUUCCACCACCUCUGUGUCAGCUGGGCAGGGUUGCUCAGAGAUGCCUUCUUCAGCCUCCUCAGGCUCUACUUCAACAGAGGAUUGAGCAUCA
B21: 70314851_70314971_327_CDS_ENSG00000169564_ENST00000303577|human|control|control (ssRNA)
RNA: GGGAGUUCUACAGUCCGACGAUCUUUCUUCCCAAUGAUGCUUCCUACUUCCUUUCCGUGCAUAAGAAGCCGAAUGGUGAGAGUCACAUUUAGUCCACUUUCAGUCACACCGGCAUCCAUGGCGAGCGGCGGGCGGCGUUCGGGCAACAGAGGAUUGAGCAUCA
B22: chr7:90019433:90019434:+_ENSMUSG00000057706_ENSMUST00000082237|mus_mus|motif|central (ssRNA)
RNA: GGGAGUUCUACAGUCCGACGAUCAAUAAUACAGUGUUCUUUGCCAUAAGGCCAUACUAAAAAUAAAAAGAUUUAACCCAGCGGCAAAAAAGUUCACUGAACUUAAAUUAAAAUACUUGUAAACAUCUUUGCAAUAUGAAAUAUCAACAGAGGAUUGAGCAUCA

target: T1, UNK ZnF1-3; assay: nsRBNS (natural sequence RNA bind-n-seq); RBNS binding buffer (assumed for nsRBNS): 25 mM Tris pH 7.5, 150 mM KCl, 3 mM MgCl2, 0.01% Triton X-100, 500 ug/ml BSA, 20 U/ml SUPERase-In, 4 C; UNK is unkempt and MSI1 is Musashi-1; names of the RNAs are library labels; protein concentration not given here; high values mean tight binding

| Binder | binding signal |
| --- | --- |
| B1 | 0.748 enrichment R |
| B2 | 0.404 enrichment R |
| B3 | 0.995 enrichment R |
| B4 | 1.12 enrichment R |
| B5 | 1.05 enrichment R |
| B6 | 0.745 enrichment R |
| B7 | 1.26 enrichment R |
| B8 | 1.38 enrichment R |
| B9 | 1.09 enrichment R |
| B10 | 0.702 enrichment R |
| B11 | 0.937 enrichment R |
| B12 | 1.31 enrichment R |
| B13 | 0.605 enrichment R |
| B14 | 0.496 enrichment R |
| B15 | 0.41 enrichment R |
| B16 | 1.15 enrichment R |
| B17 | 1.27 enrichment R |
| B18 | 0.867 enrichment R |
| B19 | 1.49 enrichment R |
| B20 | 0.178 enrichment R |
| B21 | 0.933 enrichment R |
| B22 | 2.62 enrichment R |
